# Experimental data from the supplement of paper PMC8728848.
# This is one part of the list.
# What was measured:
# Experiment in all cases: glycan array binding signal (z-score within array); higher = stronger binding
# Conditions in all cases: glycan notation: IUPAC condensed, linker removed
# Neu5Ac(a2-3)Gal(b1-4)Glc = target: Neu5Ac(a2-3)Gal(b1-4)Glc
# Procedure, shortened: (§1)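 From the Consortium for Functional Glycomics database, 3228 arrays were curated, keeping only those whose protein sequence was available. Binding is given as a within-array Z-score averaged across arrays sharing a protein sequence and across linkers. Negative Z-scores can be read as non-binding.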
# [1] = target: Neu5Ac(a2-3)Gal(b1-4)GlcNAc
# Procedure, shortened: as §1
# [2] = target: Neu5Ac(a2-3)Gal(b1-4)GlcNAc(b1-2)Man
# Procedure, shortened: as §1
# [3] = target: Neu5Ac(a2-3)Gal(b1-4)GlcNAc(b1-2)Man(a1-3)[GlcNAc(b1-4)][Neu5Ac(a2-3)Gal(b1-4)GlcNAc(b1-2)Man(a1-6)]Man(b1-4)GlcNAc(b1-4)GlcNAc
# Procedure, shortened: as §1
# [4] = target: Neu5Ac(a2-3)Gal(b1-4)GlcNAc(b1-2)Man(a1-3)[Neu5Ac(a2-3)Gal(b1-4)GlcNAc(b1-2)Man(a1-6)]Man(b1-4)GlcNAc(b1-4)GlcNAc
# Procedure, shortened: as §1
# [5] = target: Neu5Ac(a2-3)Gal(b1-4)GlcNAc(b1-2)Man(a1-3)[Neu5Ac(a2-3)Gal(b1-4)GlcNAc(b1-2)Man(a1-6)]Man(b1-4)GlcNAc(b1-4)[Fuc(a1-6)]GlcNAc
# Procedure, shortened: as §1
# [6] = target: Neu5Ac(a2-3)Gal(b1-4)GlcNAc(b1-2)Man(a1-3)[Neu5Ac(a2-6)Gal(b1-4)GlcNAc(b1-2)Man(a1-6)]Man(b1-4)GlcNAc(b1-4)GlcNAc
# Procedure, shortened: as §1
# [7] = target: Neu5Ac(a2-3)Gal(b1-4)GlcNAc(b1-2)[Neu5Ac(a2-3)Gal(b1-4)GlcNAc(b1-4)]Man(a1-3)[GlcNAc(b1-4)][Neu5Ac(a2-3)Gal(b1-4)GlcNAc(b1-2)[Neu5Ac(a2-3)Gal(b1-4)GlcNAc(b1-6)]Man(a1-6)]Man(b1-4)GlcNAc(b1-4)GlcNAc
# Procedure, shortened: as §1
# [8] = target: Neu5Ac(a2-3)Gal(b1-4)GlcNAc(b1-2)[Neu5Ac(a2-3)Gal(b1-4)GlcNAc(b1-4)]Man(a1-3)[GlcNAc(b1-4)][Neu5Ac(a2-3)Gal(b1-4)GlcNAc(b1-4)Man(a1-6)]Man(b1-4)GlcNAc(b1-4)GlcNAc
# Procedure, shortened: as §1
# [9] = target: Neu5Ac(a2-3)Gal(b1-4)GlcNAc(b1-2)[Neu5Ac(a2-3)Gal(b1-4)GlcNAc(b1-6)]Man(a1-6)[Neu5Ac(a2-3)Gal(b1-4)GlcNAc(b1-2)Man(a1-3)]Man(b1-4)GlcNAc(b1-4)GlcNAc
# Procedure, shortened: as §1
# [10] = target: Neu5Ac(a2-3)Gal(b1-4)GlcNAc(b1-2)[Neu5Ac(a2-3)Gal(b1-4)GlcNAc(b1-6)]Man(a1-6)[Neu5Ac(a2-3)Gal(b1-4)GlcNAc(b1-2)Man(a1-3)][GlcNAc(b1-4)]Man(b1-4)GlcNAc(b1-4)GlcNAc
# Procedure, shortened: as §1
# [11] = target: Neu5Ac(a2-3)Gal(b1-4)GlcNAc(b1-3)Gal
# Procedure, shortened: as §1
# [12] = target: Neu5Ac(a2-3)Gal(b1-4)GlcNAc(b1-3)Gal(b1-3)GlcNAc
# Procedure, shortened: as §1
# [13] = target: Neu5Ac(a2-3)Gal(b1-4)GlcNAc(b1-3)Gal(b1-4)GlcNAc
# Procedure, shortened: as §1
# [14] = target: Neu5Ac(a2-3)Gal(b1-4)GlcNAc(b1-3)Gal(b1-4)GlcNAc(b1-2)Man(a1-3)[Neu5Ac(a2-3)Gal(b1-4)GlcNAc(b1-3)Gal(b1-4)GlcNAc(b1-2)Man(a1-6)]Man(b1-4)GlcNAc(b1-4)GlcNAc
# Procedure, shortened: as §1
# [15] = target: Neu5Ac(a2-3)Gal(b1-4)GlcNAc(b1-3)Gal(b1-4)GlcNAc(b1-3)Gal(b1-4)GlcNAc
# Procedure, shortened: as §1
# [16] = target: Neu5Ac(a2-3)Gal(b1-4)GlcNAc(b1-3)Gal(b1-4)GlcNAc(b1-3)Gal(b1-4)GlcNAc(b1-2)Man(a1-3)[Neu5Ac(a2-3)Gal(b1-4)GlcNAc(b1-3)Gal(b1-4)GlcNAc(b1-3)Gal(b1-4)GlcNAc(b1-2)Man(a1-6)]GalNAc
# Procedure, shortened: as §1
# [17] = target: Neu5Ac(a2-3)Gal(b1-4)GlcNAc(b1-3)Gal(b1-4)GlcNAc(b1-3)GalNAc
# Procedure, shortened: as §1
# [18] = target: Neu5Ac(a2-3)Gal(b1-4)GlcNAc(b1-3)Gal(b1-4)GlcNAc(b1-3)[Neu5Ac(a2-3)Gal(b1-4)GlcNAc(b1-3)Gal(b1-4)GlcNAc(b1-6)]GalNAc
# Procedure, shortened: as §1
# [19] = target: Neu5Ac(a2-3)Gal(b1-4)GlcNAc(b1-3)Gal(b1-4)GlcNAc(b1-6)[Gal(b1-3)]GalNAc
# Procedure, shortened: as §1
# [20] = target: Neu5Ac(a2-3)Gal(b1-4)GlcNAc(b1-3)Gal(b1-4)[Fuc(a1-3)]GlcNAc
# Procedure, shortened: as §1
# [21] = target: Neu5Ac(a2-3)Gal(b1-4)GlcNAc(b1-3)GalNAc
# Procedure, shortened: as §1
# [22] = target: Neu5Ac(a2-3)Gal(b1-4)GlcNAc(b1-3)[Neu5Ac(a2-3)Gal(b1-4)GlcNAc(b1-6)]GalNAc
# Procedure, shortened: as §1
# [23] = target: Neu5Ac(a2-3)Gal(b1-4)GlcNAc(b1-6)GalNAc
# Procedure, shortened: as §1
# [24] = target: Neu5Ac(a2-3)Gal(b1-4)GlcNAc(b1-6)[Gal(b1-3)]GalNAc
# Procedure, shortened: as §1
# [25] = target: Neu5Ac(a2-3)Gal(b1-4)GlcNAc(b1-6)[Neu5Ac(a2-3)Gal(b1-3)]GalNAc
# Procedure, shortened: as §1
# [26] = target: Neu5Ac(a2-3)Gal(b1-4)GlcNAc6S
# Procedure, shortened: as §1
# [27] = target: Neu5Ac(a2-3)Gal(b1-4)[Fuc(a1-3)]GlcNAc
# Procedure, shortened: as §1
# [28] = target: Neu5Ac(a2-3)Gal(b1-4)[Fuc(a1-3)]GlcNAc(b1-2)Man
# Procedure, shortened: as §1
# [29] = target: Neu5Ac(a2-3)Gal(b1-4)[Fuc(a1-3)]GlcNAc(b1-3)Gal
# Procedure, shortened: as §1
# [30] = target: Neu5Ac(a2-3)Gal(b1-4)[Fuc(a1-3)]GlcNAc(b1-3)Gal(b1-4)GlcNAc
# Procedure, shortened: as §1
# [31] = target: Neu5Ac(a2-3)Gal(b1-4)[Fuc(a1-3)]GlcNAc(b1-3)Gal(b1-4)[Fuc(a1-3)]GlcNAc(b1-3)Gal(b1-4)[Fuc(a1-3)]GlcNAc
# Procedure, shortened: as §1
# [32] = target: Neu5Ac(a2-3)Gal(b1-4)[Fuc(a1-3)]GlcNAc(b1-3)GalNAc
# Procedure, shortened: as §1
# [33] = target: Neu5Ac(a2-3)Gal(b1-4)[Fuc(a1-3)]GlcNAc(b1-6)[Gal(b1-3)]GalNAc
# Procedure, shortened: as §1
# [34] = target: Neu5Ac(a2-3)Gal(b1-4)[Fuc(a1-3)]GlcNAc(b1-6)[Neu5Ac(a2-3)Gal(b1-3)]GalNAc
# Procedure, shortened: as §1
# [35] = target: Neu5Ac(a2-3)Gal(b1-4)[Fuc(a1-3)]GlcNAc6S
# Procedure, shortened: as §1
# [36] = target: Neu5Ac(a2-3)Gal6S(b1-4)GlcNAc
# Procedure, shortened: as §1
# [37] = target: Neu5Ac(a2-3)Gal6S(b1-4)[Fuc(a1-3)]GlcNAc
# Procedure, shortened: as §1
binder,measurement,setting,value
Cohesin-marm-DC-ASGPR-CRD (protein) LDITSHHHHHHDDLDAVRIKVDTVNAKPGDTVRIPVRFSGIPSKGIANCDFVYSYDPNVLEIIEIEPGDIIVDPNPDKSFDTAVYPDRKIIVFLFAEDSGTGAYAITKDGVFATIVAKVKEGAPNGLSVIKFVEVGGFANNDLVEQKTQFFDGGVNVGDTTEPATPTTPVTTPTTTDDLDAASCPINWVEHQGSCYWFSRSGKTWPEAERYCQLENTHLVVINSREEQNFVQAHLGSAYTWMGLSDPEGVWKWVDGTDYSSGFQNWKPGQPDDWQGHGLGGGEDCAHFHPDGRWNDDVCQRSYHWVCEAGLTQASQDSH,glycan array binding signal (z-score),Neu5Ac(a2-3)Gal(b1-4)Glc,-0.429
same,glycan array binding signal (z-score),[1],-0.447
same,glycan array binding signal (z-score),[2],-0.077
same,glycan array binding signal (z-score),[3],-0.448
same,glycan array binding signal (z-score),[4],-0.325
same,glycan array binding signal (z-score),[5],-0.449
same,glycan array binding signal (z-score),[6],-0.442
same,glycan array binding signal (z-score),[7],-0.254
same,glycan array binding signal (z-score),[8],-0.46
same,glycan array binding signal (z-score),[9],-0.331
same,glycan array binding signal (z-score),[10],-0.446
same,glycan array binding signal (z-score),[11],-0.455
same,glycan array binding signal (z-score),[12],-0.414
same,glycan array binding signal (z-score),[13],-0.444
same,glycan array binding signal (z-score),[14],-0.347
same,glycan array binding signal (z-score),[15],-0.457
same,glycan array binding signal (z-score),[16],0.247
same,glycan array binding signal (z-score),[17],-0.389
same,glycan array binding signal (z-score),[18],-0.336
same,glycan array binding signal (z-score),[19],-0.346
same,glycan array binding signal (z-score),[20],-0.45
same,glycan array binding signal (z-score),[21],-0.455
same,glycan array binding signal (z-score),[22],-0.447
same,glycan array binding signal (z-score),[23],2.74
same,glycan array binding signal (z-score),[24],-0.422
same,glycan array binding signal (z-score),[25],-0.459
same,glycan array binding signal (z-score),[26],-0.398
same,glycan array binding signal (z-score),[27],-0.441
same,glycan array binding signal (z-score),[28],-0.386
same,glycan array binding signal (z-score),[29],-0.446
same,glycan array binding signal (z-score),[30],-0.388
same,glycan array binding signal (z-score),[31],-0.442
same,glycan array binding signal (z-score),[32],-0.237
same,glycan array binding signal (z-score),[33],-0.428
same,glycan array binding signal (z-score),[34],-0.275
same,glycan array binding signal (z-score),[35],-0.434
same,glycan array binding signal (z-score),[36],-0.447
same,glycan array binding signal (z-score),[37],-0.45
